Laboratory results from US11160803B2, “Phthalazinone derivatives” (KUDOS PHARMACEUTICALS LIMITED, priority 2003, dated 2021).
Read-outs that look alike come from different tables or passages of the source.

Molecular target: Mammalian PARP, isolated from Hela cell nuclear extract (Homo sapiens, UniProt P09874)
Assay: PARP inhibition assay (FlashPlate, 3H-NAD incorporation), IC50
Format: biochemical
Method: In order to assess the inhibitory action of the compounds, the following assay was used to determine IC50 values (Dillon, et al., JBS., 8(3), 347-352 (2003)).
The total assay volume per well was 40 μl.
After 10 minutes incubation at 30° C. the reactions were initiated by the addition of a 10 μl reaction mixture, containing NAD (5 μM), ^3H-NAD and 30 mer double stranded DNA-oligos. Designated positive and negative reaction wells were done in combination with compound wells (unknowns) in order to calculate % enzyme activities. The plates were then shaken for 2 minutes and incubated at 30° C. for 45 minutes.
Following the incubation, the reactions were quenched by the addition of 50 μl 30% acetic acid to each well. The plates were then shaken for 1 hour at room temperature.
The plates were transferred to a TopCount NXT (TRADE MARK) (Packard, UK) for scintillation counting. Values recorded are counts per minute (cpm) following a 30 second counting of each well.
The % enzyme activity for each compound is then calculated using the following equation: […]
Such IC50 values are used as comparative values to identify increased compound potencies.

[1] = PARP from Hela cell nuclear extract, NAD 5 μM, 30° C.

SMILES	IC50 [1] [nM]	IC50 [nM]
CC(C)(C)CN1CCN(C(=O)c2cc(Cc3n[nH]c(=O)c4ccccc34)ccc2F)CC1 [compound 258]	< 10	
O=C(CN1CCN(C(=O)c2cc(Cc3n[nH]c(=O)c4ccccc34)ccc2F)CC1)N1CCOCC1 [compound 239]	< 10	
CCCN1CCN(C(=O)c2cc(Cc3n[nH]c(=O)c4ccccc34)ccc2F)CC1 [compound 256]	< 10	
O=C(c1cccc(Cc2n[nH]c(=O)c3ccccc23)c1)N1CCN(c2nc(-c3ccccc3)ns2)CC1 [compound 27]	< 10	
O=C(CCSc1nc2ccccc2s1)N1CCN(C(=O)c2cccc(Cc3n[nH]c(=O)c4ccccc34)c2)CC1 [compound 88]	< 10	
Cn1c(CCCC(=O)N2CCN(C(=O)c3cccc(Cc4n[nH]c(=O)c5ccccc45)c3)CC2)cc2ccccc2c1=O [compound 90]	< 10	
CCCCCC(C)C(=O)N1CCN(C(=O)c2cccc(Cc3n[nH]c(=O)c4ccccc34)c2)CC1 (centres unmarked) [compound 97]	< 10	
Cc1ccc(C(=O)C2CCN(C(=O)c3cccc(Cc4n[nH]c(=O)c5ccccc45)c3)CC2)cc1 [compound 20]	< 10	
CCCc1cnc(N2CCCN(C(=O)c3cccc(Cc4n[nH]c(=O)c5ccccc45)c3)CC2)nc1 [compound 9]	< 10	
O=C(c1cc(Cc2n[nH]c(=O)c3ccccc23)ccc1F)N1CCN(c2ccccc2F)CC1 [compound 222]	< 10	
N#Cc1cccnc1N1CCCN(C(=O)c2cccc(Cc3n[nH]c(=O)c4ccccc34)c2)CC1 [compound 10]	< 10	
O=C(c1cccc(Cc2n[nH]c(=O)c3ccccc23)c1)N1CCC2(CC1)NCCc1c2[nH]c2ccccc12 [compound 24]	< 10	
O=C(c1cccc(Cc2n[nH]c(=O)c3ccccc23)c1)N1CCN(C(=O)c2ccc(F)cc2Cl)CC1 [compound 68]	< 10	
O=C(c1ccccc1)C1CCN(C(=O)c2cccc(Cc3n[nH]c(=O)c4ccccc34)c2)CC1 [compound 19]	< 10	
O=C(c1cc(Cc2n[nH]c(=O)c3ccccc23)ccc1F)N1CCN(c2cccc(Cl)c2)CC1 [compound 234]	< 10	
Cc1nn(C)c(Cl)c1S(=O)(=O)N1CCN(C(=O)c2cccc(Cc3n[nH]c(=O)c4ccccc34)c2)CC1 [compound 62]	< 10	
O=C(NC1CCN(C(=O)OCc2ccccc2)CC1)N1CCN(C(=O)c2cccc(Cc3n[nH]c(=O)c4ccccc34)c2)CC1 [compound 178]	< 10	

SMILES	IC50 [1] [nM]	IC50 [nM]
O=C(Cc1ccc2c(c1)OCO2)N1CCN(C(=O)c2cccc(Cc3n[nH]c(=O)c4ccccc34)c2)CC1 [compound 102]	< 10	
O=C(c1cccc(Cc2n[nH]c(=O)c3ccccc23)c1)N1CCCNCC1 [compound 3, 4-[3-([1,4]diazepane-1-carbonyl)benzyl]-2H-phthalazin-1-one]	< 10	
O=C(c1cc(Cc2n[nH]c(=O)c3ccccc23)ccc1F)N1CCN(c2ncccn2)CC1 [compound 225]	< 10	
O=C(c1cc(Cc2n[nH]c(=O)c3ccccc23)ccc1F)N1CCN(c2cccnc2)CC1 [compound 240]	< 10	
CCCN1CCCN(C(=O)c2cc(Cc3nnc(O)c4ccccc34)ccc2F)CC1 [compound 246]		< 10
O=C(c1cccc(Cc2n[nH]c(=O)c3ccccc23)c1)N1CCCN(c2ccc(C(F)(F)F)cc2[N+](=O)[O-])CC1 [compound 33]	< 10	
O=C(c1cccc(Cc2n[nH]c(=O)c3ccccc23)c1)N1CCC(C(=O)N(Cc2ccccc2)Cc2ccccc2)CC1 [compound 35]	< 10	
Cc1nn(C)c(Cl)c1C(=O)N1CCN(C(=O)c2cccc(Cc3n[nH]c(=O)c4ccccc34)c2)CC1 [compound 123]	< 10	
O=C(c1cc(Cc2n[nH]c(=O)c3ccccc23)ccc1F)N1CCCN(CC2CC2)CC1 [compound 247]		< 10
O=C(c1cccc(Cc2n[nH]c(=O)c3ccccc23)c1)N1CCN(c2c([N+](=O)[O-])cc(C(F)(F)F)cc2[N+](=O)[O-])CC1 [compound 26]	< 10	
O=C(c1cccc(Cc2n[nH]c(=O)c3ccccc23)c1)N1CCC(c2nc(-c3ccc(Cl)cc3)no2)CC1 [compound 17]	< 10	
O=C(c1cccc(Cc2n[nH]c(=O)c3ccccc23)c1)N1CCN(C(=O)c2ccc(Cl)c(Cl)c2)CC1 [compound 144]	< 10	
CCC(C)CN1CCN(C(=O)c2cc(Cc3n[nH]c(=O)c4ccccc34)ccc2F)CC1 (centres unmarked) [compound 252]	< 10	
O=C(Cc1ccc(Cl)cc1)N1CCN(C(=O)c2cccc(Cc3n[nH]c(=O)c4ccccc34)c2)CC1 [compound 101]	< 10	
O=C(c1cccc(Cc2n[nH]c(=O)c3ccccc23)c1)N1CCN(C(=O)c2ccccc2Cl)CC1 [compound 143]	< 10	
Cc1cc(C)c(S(=O)(=O)N2CCN(C(=O)c3cccc(Cc4n[nH]c(=O)c5ccccc45)c3)CC2)c(C)c1 [compound 63]	< 10	
CCC(CC)CN1CCN(C(=O)c2cc(Cc3n[nH]c(=O)c4ccccc34)ccc2F)CC1 [compound 254]	< 10	

The remaining lines, values ahead:

IC50 [1] [nM]	IC50 [nM]	SMILES
< 10		CCCCOC(=O)c1ccc(NC(=O)N2CCCN(C(=O)c3cccc(Cc4n[nH]c(=O)c5ccccc45)c3)CC2)cc1 [compound 333]
< 10		CC(C)CN1CCCN(C(=O)c2cccc(Cc3n[nH]c(=O)c4ccccc34)c2)CC1 [compound 293]
< 10		O=C(Cc1ccc(C(F)(F)F)cc1)N1CCCN(C(=O)c2cccc(Cc3n[nH]c(=O)c4ccccc34)c2)CC1 [compound 327]
< 10		O=C(c1cccc(Cc2n[nH]c(=O)c3ccccc23)c1)N1CCN(C(=O)N2CCOCC2)CC1 [compound 350]
< 10		O=C(c1cc(Cc2n[nH]c(=O)c3ccccc23)ccc1F)N1CCN(Cc2nccs2)CC1 [compound 262]
< 10		Cc1cccc(N2CCN(C(=O)C3CCN(C(=O)c4cccc(Cc5n[nH]c(=O)c6ccccc56)c4)CC3)CC2)c1C [compound 356]
< 10		COc1ccccc1NC(=S)N1CCCN(C(=O)c2cccc(Cc3n[nH]c(=O)c4ccccc34)c2)CC1 [compound 347]
< 10		CN1CCN(CCC(=O)N2CCN(C(=O)c3cc(Cc4n[nH]c(=O)c5ccccc45)ccc3F)CC2)CC1 [compound 270]
< 10		O=C(c1cccc(Cc2n[nH]c(=O)c3ccccc23)c1)N1CCCN(C(=S)Nc2ccccc2F)CC1 [compound 346]
< 10		CCOc1ccc(NC(=O)N2CCCN(C(=O)c3cccc(Cc4n[nH]c(=O)c5ccccc45)c3)CC2)cc1 [compound 332]
< 10		COc1ccc(NC(=S)N2CCCN(C(=O)c3cccc(Cc4n[nH]c(=O)c5ccccc45)c3)CC2)cc1 [compound 343]
< 10		O=C(CCN1CCOCC1)N1CCN(C(=O)c2cc(Cc3n[nH]c(=O)c4ccccc34)ccc2F)CC1 [compound 271]
< 10		Cc1cc(C)cc(NC(=O)N2CCCN(C(=O)c3cccc(Cc4n[nH]c(=O)c5ccccc45)c3)CC2)c1 [compound 331]
< 10		COC(=O)c1ccccc1NC(=S)N1CCCN(C(=O)c2cccc(Cc3n[nH]c(=O)c4ccccc34)c2)CC1 [compound 344]
< 10		O=C(c1cccc(Cc2n[nH]c(=O)c3ccccc23)c1)N1CCCN(CC2CC2)CC1 [compound 279]
< 10		O=C(c1cccc(Cc2n[nH]c(=O)c3ccccc23)c1)N1CCCN(Cc2coc3c(Cl)cc(Cl)cc3c2=O)CC1 [compound 287]

IC50 [1] [nM]	IC50 [nM]	SMILES
< 10		O=C(c1cc(Cc2n[nH]c(=O)c3ccccc23)ccc1F)N1CCN(C(=O)C2CCNCC2)CC1 [compound 272]
< 10		CC(=O)N1CCN(C(=O)c2cc(Cc3n[nH]c(=O)c4ccccc34)ccc2F)CC1 [compound 264]
< 10		Cc1ccc(NC(=S)N2CCCN(C(=O)c3cccc(Cc4n[nH]c(=O)c5ccccc45)c3)CC2)cc1 [compound 348]
< 10		O=C(Cc1ccc(-c2ccccc2)cc1)N1CCCN(C(=O)c2cccc(Cc3n[nH]c(=O)c4ccccc34)c2)CC1 [compound 328]
< 10		O=C(c1cc(Cc2n[nH]c(=O)c3ccccc23)ccc1F)N1CCN(CC2CCCCC2)CC1 [compound 259]
< 10		CCC(=O)N1CCN(C(=O)c2cc(Cc3n[nH]c(=O)c4ccccc34)ccc2F)CC1 [compound 266]
< 10		O=C(c1ccno1)N1CCN(C(=O)c2cc(Cc3n[nH]c(=O)c4ccccc34)ccc2F)CC1 [compound 265]
< 10		COC(=O)c1cccc(NC(=S)N2CCCN(C(=O)c3cccc(Cc4n[nH]c(=O)c5ccccc45)c3)CC2)c1 [compound 342]
< 10		CCCCN1CCCN(C(=O)c2cccc(Cc3n[nH]c(=O)c4ccccc34)c2)CC1 [compound 274]
< 10		O=C(c1cccc(Cc2n[nH]c(=O)c3ccccc23)c1)N1CCC(C(=O)N2CCN(c3ccc(F)cc3)CC2)CC1 [compound 357]
< 10		O=C(CCN1CCCNCC1)N1CCN(C(=O)c2cc(Cc3n[nH]c(=O)c4ccccc34)ccc2F)CC1 [compound 273]
< 10		COC(=O)c1ccc(NC(=S)N2CCCN(C(=O)c3cccc(Cc4n[nH]c(=O)c5ccccc45)c3)CC2)cc1 [compound 336]
< 10		COc1ccc2[nH]cc(CN3CCCN(C(=O)c4cccc(Cc5n[nH]c(=O)c6ccccc56)c4)CC3)c2c1 [compound 303]
< 10		COc1ccc(CCC(=O)N2CCCN(C(=O)c3cccc(Cc4n[nH]c(=O)c5ccccc45)c3)CC2)cc1 [compound 321]
< 10		O=C(c1cccc(Cc2n[nH]c(=O)c3ccccc23)c1)N1CCCN(C(=S)Nc2cccc(F)c2)CC1 [compound 335]
